PubChem BioAssay AID463173 (ICCB-Longwood Screening Facility, Harvard Medical School, 2010)
The campaign covered roughly 52,000 compounds. About 1,700 (3.3%) were called active. Rule as the data show it: active = survival mostly below about 52% (no sharp cut-off); inactive = mostly above about 56%. Some of the results follow.

Tested on: Wild type
Assay: growth inhibition of S. aureus wild type versus tarO mutant, primary screen, teichoic acid synthesis inhibitors, RN4220, OD600 (AID 463173)
Settings: S. aureus RN4220 wild type/DeltatarO growth, OD600, 18 h, active compounds read low, screened at 18.75 µg/mL (by protocol)

SMILES | survival
Cc1ccc(Cn2c(=O)c3ccccc3n3c(-c4ccccc4)nnc23)cc1 | inactive: 91%
CCc1ccc(CNC(=O)CSCc2cnn(-c3ccccc3)c2-n2cccc2)cc1 | inactive: 59%
Cc1ccc(OCC(=O)Nc2ccc3nc(SCC(=O)N4CCCC4)sc3c2)cc1C | inactive: 85%
CCOC(=O)C1=C(C)N(C)C(c2ccccc2)(C(F)(F)F)NC1=O (centres undefined) | inactive: 104%
COc1ccc(NC(=O)CCCS(=O)(=O)c2nc(-c3ccc(OC)c(OC)c3)cc(C(F)(F)F)n2)cc1OC | inactive: 82%
O=C(Nc1ccc2c(c1)N(C1CCCC1)C(=O)c1ccccc1S2)c1ccccc1 | inactive: 75%
N=C(N=Nc1c(O)n(Cc2ccccc2)c2ccccc12)SCC(=O)Nc1ccccc1 | inactive: 110%
Cc1ccc(Cl)cc1NC(=O)CCS(=O)(=O)c1ccc(Br)s1 | inactive: 78%
Cc1ccc(N2CC(C(=O)OCC(=O)C(C)(C)C)CC2=O)cc1 (centres undefined) | inactive: 101%
COc1ccc(CCNC(=O)C(=O)NCC(c2cccs2)S(=O)(=O)c2ccccc2)cc1 (centres undefined) | inactive: 152%
Cc1ccc(SCC(=O)Nc2ccc3oc(-c4cccc(C)c4)nc3c2)cc1 | inactive: 96%
COc1cccc(-c2nc(CS(=O)CC(=O)N3CCN(c4cccc(C(F)(F)F)c4)CC3)c(C)o2)c1 (centres undefined) | active: -2%
O=C(Cn1cnc2c(cnn2-c2ccccc2)c1=O)N1CCCc2ccccc21 | inactive: 107%
CC1(C)CC(=O)C2=C(C1)N(CC(=O)O)C1=C(C(=O)CC(C)(C)C1)C2c1ccccc1 | inactive: 105%
CC(C(=O)NCc1ccco1)N1C(=O)c2ccccc2C1=O (centres undefined) | inactive: 107%
CCN1C(=O)CC(C(=O)Nc2ccc(OC)cc2)SC1=Nc1ccc(C)c(C)c1 (centres undefined) | inactive: 74%
O=C(Cn1cc(SCc2ccccc2Cl)c2ccccc21)N1CCCCCC1 | inactive: 83%
COc1ccc(OC)c(CNS(=O)(=O)c2ccc(-c3cc(C(F)(F)F)on3)s2)c1 | active: -6%
CCOC(=O)c1noc2ncn(CC(=O)O)c(=O)c12 | inactive: 68%
O=C(NCCC1=CCCCC1)c1ccc2c(c1)N(Cc1ccccc1)C(=O)c1ccccc1S2(=O)=O | inactive: 95%
Cc1ccc(CNC(=O)CN(c2cc(C)cc(C)c2)S(=O)(=O)c2c(C)[nH]c(=O)[nH]c2=O)cc1 | inactive: 89%
Cc1ccc(N2CCN(C(=O)c3nn(C)c4c3CSc3ccccc3-4)CC2C)cc1 (centres undefined) | inactive: 61%
O=C(NC1CCCC1)c1ccc2c(c1)N(Cc1ccc(F)cc1)C(=O)c1ccccc1S2 | inactive: 81%

SMILES | survival
CCc1ccc(C2c3c(n[nH]c3C)C(=O)N2c2ccc(C)cc2)cc1 (centres undefined) | inactive: 44%
CCc1cccc(NC(=O)CCS(=O)(=O)c2ccc(C)cc2)c1 | inactive: 79%
CC(C)CCNC(=O)CSc1nc2ccsc2c(=O)n1Cc1ccccc1Cl | inactive: 72%
COc1ccc(NC(=O)C(Cc2ccccc2)n2cccc2)c(OC)c1 (centres undefined) | inactive: 78%
O=S(=O)(Nc1nc2n(n1)C(c1ccccc1)C=C(c1ccc(Cl)cc1)N2)c1ccccc1 (centres undefined) | inactive: 65%
O=C(c1cc2ccccc2oc1=O)N(Cc1ccc2c(c1)OCO2)CC1CCCO1 (centres undefined) | inactive: 98%
COC(=O)CSc1n[nH]c(C)n1 | inactive: 108%
COc1ccc(-c2noc(-c3ccccc3NC(=O)c3cc(OC)c(OC)c(OC)c3)n2)cc1 | inactive: 79%
COc1ccccc1N1CCN(C(=O)CSc2nc(-c3ccc(C(C)C)cc3)no2)CC1 | inactive: 124%
O=C(CSc1nc2ccccc2o1)NN=C1CCCC1 | inactive: 102%
O=C(NCc1ccc(Cl)cc1)C1CCCN(c2ncnc3onc(-c4ccc(F)cc4)c23)C1 (centres undefined) | inactive: 68%
Cc1cccc(NC(=O)c2c(Br)sc3c2CCCC3)c1 | active: 0%
COc1ccc(Nc2nnc(-c3ccc(C)c(S(=O)(=O)N4CCOCC4)c3)c3ccccc23)cc1 | inactive: 84%
CCOc1cc(C2c3c(oc4ccc(F)cc4c3=O)C(=O)N2Cc2ccc(C)cc2)ccc1O (centres undefined) | inactive: 141%
CCCCNC(=O)CSc1nc2n[nH]c(C)c2c(=N)n1-c1ccccc1CC | inactive: 72%
COc1ccc(C2CC(=O)c3c([nH]c(C(=O)OCc4ccccc4)c3C)C2)cc1OC (centres undefined) | inactive: 94%
O=C(COc1ccccc1F)Nc1nnc(S(=O)(=O)N2CCCCCC2)s1 | inactive: 64%
Cc1ccccc1Cc1c(C)nc2nc(SCC(=O)NC(C)c3ccccc3)nn2c1C (centres undefined) | inactive: 80%
CCC1CN(C(=O)Nc2cccc3c2CCCC3)c2cc(C)ccc2O1 (centres undefined) | inactive: 79%
CCOC(=O)c1c(C)oc2nc(C)nc(NCCCN3CCN(c4cccc(C)c4)C(C)C3)c12 (centres undefined) | inactive: 127%
O=C(NCCCN1CCN(c2ccccc2)CC1)c1cc2c(s1)-c1ccccc1OC2 | inactive: 69%
O=C1NC(=O)C(Nc2ccccc2Cl)S1 (centres undefined) | inactive: 108%
CCCCNC(=O)C1CCN(Cc2nc(-c3ccc(OC)c(OC)c3)oc2C)CC1 | inactive: 88%

SMILES | survival
CCCOc1cccc(C2c3c(oc4ccc(F)cc4c3=O)C(=O)N2Cc2ccc3c(c2)OCO3)c1 (centres undefined) | inactive: 64%
Cc1nc(-n2nc(C)c(Cc3ccc4c(c3)OCO4)c2C)sc1C(=O)Nc1ccc(Cl)cc1 | inactive: 121%
Cc1ccc(-n2cnc3cc(C(=O)NCc4ccccc4Cl)ccc32)c(C)c1 | active: 10%
Cc1ccc2nc(N3CCN(c4ccccc4F)CC3)c3nnnn3c2c1 | inactive: 76%
COc1ccc(CC(=O)NCc2ccc3c(c2)CCN3C(=O)c2cccc(C)c2)cc1 | active: -6%
CCCCN(Cc1ccco1)C(=O)Cn1ncc2c([nH]c3ccccc32)c1=O | inactive: 148%
CN1CCSc2ccc(C(=O)NCc3ccccc3)cc21 | inactive: 72%
O=C(c1ccco1)n1nc(-c2ccc(Cl)cc2)nc1NCc1ccc(F)cc1 | inactive: 70%
Cc1cccc(Cn2cccc2CNS(=O)(=O)c2ccc(C)c(C)c2)c1 | inactive: 99%
CSc1ccc(-c2ccc3c(c2)OCCO3)nn1 | inactive: 93%
Cc1cccc(NS(=O)(=O)c2ccc3nc(-c4ccccc4)[nH]c3c2)c1C | inactive: 129%
CCOC(=O)c1scc(-c2ccc(C)cc2)c1S(=O)(=O)Nc1ccc(OC)c(Cl)c1 | inactive: 90%
Cc1ccc(NC(=O)Cn2c(=O)n(CCC(=O)NCc3ccccc3Cl)c(=O)c3ccccc32)c(C)c1 | inactive: 104%
CC(C)OC(=O)CCC1(C(=O)O)CCC(=O)NC1 (centres undefined) | inactive: 103%
COc1ccc(C2C(C(=O)Nc3ccccc3)=C(C)Nc3nc(-c4ccccc4Cl)nn32)cc1OC (centres undefined) | inactive: 77%
CCOCCCNc1nc2cc(OC)c(OC)cc2c2nc(-c3ccccc3)nn12 | inactive: 69%
Clc1ccccc1Nc1ncnc2c1nc1n2CCCCC1 | active: 0%
O=C(Nc1ccc2nc(SCCOc3ccccc3)sc2c1)c1ccc2c(c1)OCO2 | inactive: 91%
Cc1cccc(Cn2c(=O)n(CC3CCC(C(=O)N4CCC(C)CC4)CC3)c(=O)c3sccc32)c1 (centres undefined) | inactive: 83%
O=C(CSc1cn(CC(=O)N2CCCC2)c2ccccc12)Nc1ccccc1C(F)(F)F | inactive: 93%
Cc1ccc(C(=O)CSc2nc3ccccc3c(=O)n2Cc2ccco2)cc1 | inactive: 100%
COc1cc2[nH]c(=O)n(CCCCCC(=O)N3CCN(c4ccc(Cl)cc4)CC3)c(=O)c2cc1OC | inactive: 95%
Cc1ccc(CNC(=O)CN(c2cc(C)cc(C)c2)S(=O)(=O)c2c(C)noc2C)cc1 | inactive: 96%

SMILES | survival
Cc1nc2cc(-c3ccccc3)nn2c(C)c1CCC(=O)NCc1cccc(Cl)c1 | inactive: 84%
CC(C)NS(=O)(=O)c1ccc(N2C(=O)c3ccccc3C2=O)cc1 | inactive: 99%
O=C(Nc1cccc(Br)c1)c1cc(-c2ccc3c(c2)OCCO3)on1 | inactive: 80%
COC(=O)c1ccccc1NC(=O)c1ccc2c(Cl)c3c(nc2c1)CCCC3 | inactive: 81%
COc1ccc2c(c1)cc1c(=O)n(CC(=O)NCCc3ccccc3)nc(C)n12 | inactive: 81%
CCOC(=O)Cc1ccc(NC(=O)N2CC(C)Oc3ccc(Cl)cc32)cc1 (centres undefined) | inactive: 88%
COc1cc2nc(NCc3ccccc3)n3nc(-c4ccccc4)nc3c2cc1OC | inactive: 81%
Cc1nc2ccn(Cc3cccs3)c(=O)c2cc1C(=O)N1CCN(c2ccccc2)CC1 | inactive: 82%
C=CCN(CC=C)C(=O)CN1C(=O)c2ccccc2C1=O | inactive: 107%
Cc1ccc2c(c1)N(CC(=O)NCCCN1CCCCC1C)C(=O)c1cccnc1O2 (centres undefined) | inactive: 97%
COc1ccc(S(=O)(=O)N2CCC(NC(=O)c3ccccc3)CC2)cc1 | inactive: 109%
CCOC(=O)N1CCN(Cc2nc3cc(NC(=O)c4ccccc4OC)ccc3n2C(C)C)CC1 | inactive: 88%
Cc1ccc(-n2c(=O)c3ccc(C(=O)NCc4ccco4)cc3n(Cc3ccc(Cl)cc3)c2=O)cc1 | inactive: 80%
Cc1ccccc1CNCCSc1nnnn1-c1ccccc1 | inactive: 82%
COc1ccc(-n2c(=O)c3ccc(C(=O)NCc4ccc(C)cc4)cc3n(Cc3ccc(C)cc3)c2=O)cc1 | inactive: 82%
COc1ccc(CNC(=O)c2nc(S(=O)(=O)Cc3ccccc3)ncc2Cl)cc1 | inactive: 34%
COc1ccc(CNC(=O)CCc2c(C)c3cc4c(C)coc4cc3oc2=O)cc1 | inactive: 81%
Cc1ccc(-n2nc3c(=O)n(CC(=O)NCc4ccco4)nc(C)c3c2C)cc1 | inactive: 63%
Cc1cccc(NC(=O)/C(=C\c2ccco2)NC(=O)c2cccs2)c1 | inactive: 114%
Cc1nc2nc(SCC(=O)N(Cc3ccccc3)C(C)C)nn2c(C)c1Cc1ccccc1Cl | inactive: 63%
